These results are taken from PMC6919601, “Identification of Plasmodium dipeptidyl aminopeptidase allosteric inhibitors by high throughput screening” (PLoS ONE, 2019).

Hit rate of the full screen: of about 110,000 compounds, about 230 (0.21%) showed an effect of 50% or more. Some of the results follow.
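Also: 30 min substrate incubation versus DMSO and 10 µM JCP410 controls.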

Sequence of DPAP1 (Q8IIJ9 whole entry, looked up): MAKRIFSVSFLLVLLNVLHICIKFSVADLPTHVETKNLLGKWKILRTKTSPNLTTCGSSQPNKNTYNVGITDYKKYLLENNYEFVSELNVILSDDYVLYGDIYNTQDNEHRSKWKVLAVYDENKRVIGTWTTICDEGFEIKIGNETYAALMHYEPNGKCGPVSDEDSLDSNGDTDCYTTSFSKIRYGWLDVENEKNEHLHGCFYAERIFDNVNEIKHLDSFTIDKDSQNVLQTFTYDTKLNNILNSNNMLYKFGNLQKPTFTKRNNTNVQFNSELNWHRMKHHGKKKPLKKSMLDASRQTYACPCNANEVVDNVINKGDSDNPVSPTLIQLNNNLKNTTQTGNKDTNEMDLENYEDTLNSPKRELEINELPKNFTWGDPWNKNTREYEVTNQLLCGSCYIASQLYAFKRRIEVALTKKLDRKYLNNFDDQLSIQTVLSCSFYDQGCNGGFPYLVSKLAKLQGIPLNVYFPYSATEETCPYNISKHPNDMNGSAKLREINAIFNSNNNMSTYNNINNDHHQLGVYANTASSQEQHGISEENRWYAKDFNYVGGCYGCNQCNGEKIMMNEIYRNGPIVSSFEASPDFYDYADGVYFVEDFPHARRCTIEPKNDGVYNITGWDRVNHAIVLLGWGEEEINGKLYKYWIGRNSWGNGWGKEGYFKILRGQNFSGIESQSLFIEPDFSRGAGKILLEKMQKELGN

This experiment addresses DPAP1 (Plasmodium falciparum, UniProt Q8IIJ9). Briefly: primary screen, percent inhibition; read by cleavage of a fluorogenic dipeptide substrate; higher = more effect of the substance. Details: species or system P. falciparum D10 trophozoite lysates; single well.
With `COC(=O)/C(C#N)=C/c1c(Oc2ccc(C)cc2)nc2ccccn2c1=O`, the “% Inhibition @ 10 uM” value was -6.23%.

For the molecule `CCCOC(C(=O)OC(C)CN(C)C)(c1ccccc1)c1ccccc1` (stereo not shown), the “% Inhibition @ 10 uM” value is on record as -8.3%.

With `CCn1c(C(=O)NCCc2ccc(OC)cc2OC)cc2sc(Cl)cc21`, the “% Inhibition @ 10 uM” value is recorded as -6.68%.

Regarding `O=C(Nc1cccnc1)C1COc2ccccc2O1` (stereo not shown), the “% Inhibition @ 10 uM” value is reported as -3.49%.

`COc1ccc(CC(=O)NCC2OCCc3ccccc32)cc1OC` (stereo not shown): the “% Inhibition @ 10 uM” value is -5.28%.

For `Cc1ccc(S(=O)(=O)Nc2ccc3c(c2)ncn3-c2ccccc2)cc1`, the “% Inhibition @ 10 uM” value is 1.03%.

Turning to `COC(=O)C(NC(=O)c1ccc(Cl)cc1Cl)c1ccccc1` (stereo not shown), the “% Inhibition @ 10 uM” value amounted to 2.13%.

`O=C(CCCCCNc1nc(S)nc2ccccc12)NC1CCN(Cc2ccccc2)CC1`: the “% Inhibition @ 10 uM” value came out at 9.34%.

On to `CN(c1ccc(C(=O)NCC2CCCO2)cc1)S(C)(=O)=O` (stereo not shown), for which the “% Inhibition @ 10 uM” value is -0.469%.

For `O=C(c1ccc2c(c1)nc(S)n1c3ccccc3nc21)N1CCN(c2ncccn2)CC1`, the “% Inhibition @ 10 uM” value turned out to be 7.11%.

Turning to `Cc1ccc(C2=NS(=O)(=O)N(C)C(C(=O)N3CCC(C)C4CCCCC43)=C2)cc1` (stereo not shown), the “% Inhibition @ 10 uM” value was -2.84%.

With `Nc1ncnc2c1C(c1ccccc1)c1c(ccc3ccccc13)O2` (stereo not shown), the “% Inhibition @ 10 uM” value came out at 1.31%.

For `Cn1c(=O)c2c(nc(Cl)n2Cc2ccc(Cl)cc2Cl)n(C)c1=O`, the “% Inhibition @ 10 uM” value was -4.59%.

With `C=Cc1ccc(Cn2nc(-c3ccccc3)ccc2=O)cc1`, the “% Inhibition @ 10 uM” value was -2.71%.

Turning to `CS[C@H]1C[C@H]2OC(c3ccccc3)=N[C@H]2C(=O)N1Cc1ccccc1`, the “% Inhibition @ 10 uM” value was 0.843%.

Consider `O=C1OC(c2cc(Cl)ccc2Cl)=N/C1=C\c1cccnc1`, for which the “% Inhibition @ 10 uM” value was determined as 2.72%.

On to `COc1ccc(-c2nc3n(n2)C(=O)CC(c2cc(OC)c(OC)c(OC)c2)S3)cc1` (stereo not shown), for which the “% Inhibition @ 10 uM” value is reported as 3.66%.

As to `COc1ccc(N2CCN(C(=O)N[C@@H](CC(C)C)C(=O)NCC#N)CC2)cc1`, the “% Inhibition @ 10 uM” value is given as -2.02%.

For `Cc1ccc2[nH]c(C)c(CC(=O)O)c2c1`, the “% Inhibition @ 10 uM” value is reported as 7.02%.

Consider `Nc1[nH]nc2nc(N3CCCCC3)nc(-c3ccco3)c12`, for which the “% Inhibition @ 10 uM” value is -5.67%.

With `O=c1c(-c2ccccc2)c(O)cc(-c2cccnc2)n1-c1ccc(Cl)cc1`, the “% Inhibition @ 10 uM” value was 0.674%.

Turning to `COc1cc(SC)ccc1C(=O)Nc1ccc(Cl)cn1`, the “% Inhibition @ 10 uM” value is -1.44%.

For the molecule `CC1CC(=O)C2=C(C1)OC(N)=C(C#N)C2c1cccnc1` (stereo not shown), the “% Inhibition @ 10 uM” value was 1.48%.

As to `CC1=CC(=O)C(C(C)C)=C/C1=N/OC(=O)c1ccccc1F`, the “% Inhibition @ 10 uM” value was -2.14%.

Turning to `COC(=O)c1ccc(CSc2nnc(-c3ccncc3)n2Cc2ccccc2)o1`, the “% Inhibition @ 10 uM” value turned out to be 4.54%.

On to `CCc1c(C)nc2ccc(N)cc2c1Cl`, for which the “% Inhibition @ 10 uM” value is reported as 10.8%.

Turning to `CC1=C(C(=O)Nc2ccc(Br)cn2)C(c2ccc(N(C)C)cc2)C2=C(O)CCCC2=N1` (stereo not shown), the “% Inhibition @ 10 uM” value is -0.305%.

Take `CC1(C)CC(=O)C2=C(C1)N(c1ccccc1)C1=C(C2)C(=O)CC(C)(C)C1`: the “% Inhibition @ 10 uM” value is reported as -9.68%.

Consider `COc1ccccc1NCN1C(=O)C2CCC(C)CC2C1=O` (stereo not shown), for which the “% Inhibition @ 10 uM” value amounted to 2.7%.

For `Cc1ccc(-c2nn(CC(=O)N3CCN(Cc4ccccc4)CC3)c(=O)c3ccccc23)cc1`, the “% Inhibition @ 10 uM” value stood at 3.67%.

Take `O=C1C2CCCCC2C(=O)N1c1cc(Cl)ccc1O` (stereo not shown): the “% Inhibition @ 10 uM” value was -2.34%.

Take `COc1ccc2oc(O)cc(=O)c2c1`: the “% Inhibition @ 10 uM” value is on record as -1.76%.

For `CCOC(=O)c1cc2c(=O)n3ccccc3nc2n(CCOC)/c1=N/C(=O)c1cccnc1`, the “% Inhibition @ 10 uM” value was -3.78%.

As for `COc1ccc(CN2CCN(C(=O)CN3C(=O)C4C5C=CC(C5)C4C3=O)CC2)c(OC)c1OC` (stereo not shown), the “% Inhibition @ 10 uM” value is reported as -2.9%.

On to `CCC(C)n1nc(O)c2c1NC(=O)CSC2c1ccccc1OC` (stereo not shown), for which the “% Inhibition @ 10 uM” value was -0.45%.

As for `C=CCn1c(SCC(=O)Nc2ccc3c(c2)OCCO3)nc2sc3c(c2c1=O)CCC3`, the “% Inhibition @ 10 uM” value amounted to 2.38%.

In the case of `CCN(CC)Cc1c(O)ccc2c(=O)c(-c3ccccc3Cl)coc12`, the “% Inhibition @ 10 uM” value worked out at 0.727%.

`CNC(C)c1ccc(OC)cc1OC` (stereo not shown): the “% Inhibition @ 10 uM” value is on record as -0.216%.

As for `CCOc1ccc(C(=O)Nc2ccccc2-c2nc3ccccc3s2)cc1`, the “% Inhibition @ 10 uM” value is listed as -3.93%.

With `Cc1sc(NC(=O)c2ccnn2C)c(C#N)c1-c1ccc(F)cc1`, the “% Inhibition @ 10 uM” value is on record as -1.98%.

On to `COC(=O)c1ccc(C2CC(=O)N3C(=C2C#N)SCC3(O)c2ccc(OC)c(OC)c2)cc1` (stereo not shown), for which the “% Inhibition @ 10 uM” value is 7.77%.

Take `CN1CCc2c(c(S)sc(=N)c2C#N)C1`: the “% Inhibition @ 10 uM” value is 5.59%.

On to `N#Cc1c(NC(=O)CCCCCN2C(=O)c3ccccc3C2=O)sc2c1CCC2`, for which the “% Inhibition @ 10 uM” value is on record as 0.983%.

Consider `CN1CCN(C2CCc3ccccc3C2)CC1` (stereo not shown), for which the “% Inhibition @ 10 uM” value is listed as -7.35%.

Take `O=C(O)CN(Cc1ccccc1)S(=O)(=O)c1ccc(F)cc1`: the “% Inhibition @ 10 uM” value amounted to 2.9%.

Regarding `Cc1cc(NC(=O)c2cc(-c3ccc4c(c3)OCO4)on2)n(-c2ccccc2)n1`, the “% Inhibition @ 10 uM” value came to 0.0221%.

Regarding `CC(O)CN(Cc1ccc(Cl)c(Cl)c1)CC(C)O` (stereo not shown), the “% Inhibition @ 10 uM” value is on record as -0.603%.

In the case of `CCOC(=O)c1c(N)sc2c1CCCC2=O`, the “% Inhibition @ 10 uM” value is -7.87%.

Regarding `CC(C)(C)C1CC(=O)CN(C(C)(C)C)C1` (stereo not shown), the “% Inhibition @ 10 uM” value is -2.91%.

`Cc1ccccc1S(=O)(=O)Cc1ccc(C(=O)N2CCC3(CC2)OCCO3)o1`: the “% Inhibition @ 10 uM” value was found to be 2.14%.

As for `COc1ccc(Cl)cc1NC(=O)c1ccc(C)o1`, the “% Inhibition @ 10 uM” value amounted to 1.59%.

For `CC(C)C[C@H](NC(=O)OCc1cccc2[nH]ccc12)C(=O)NCC#N`, the “% Inhibition @ 10 uM” value was determined as 1.71%.

For the molecule `Cn1c(=O)c2c(nc3n(Cc4ccccn4)c(-c4ccc(F)cc4)cn23)n(C)c1=O`, the “% Inhibition @ 10 uM” value is reported as -10.2%.

For `O=C(NCc1cccnc1)/C(=C/c1ccc(-c2ccc(Cl)cc2)o1)S(=O)(=O)c1ccccc1`, the “% Inhibition @ 10 uM” value worked out at 2.17%.

For the molecule `O=C(N/C(=C/c1cccnc1)C(=O)N1CCCCCC1)c1ccco1`, the “% Inhibition @ 10 uM” value is 3.79%.

In the case of `O=C(O)c1cc(Br)ccc1NS(=O)(=O)c1ccc(Cl)cc1`, the “% Inhibition @ 10 uM” value is listed as -11.3%.

For the molecule `Cc1ccc(-c2nnc3n(Cc4ccccc4)c(=O)c4ccccc4n23)cc1`, the “% Inhibition @ 10 uM” value is listed as 1.68%.

With `CCSC1=C(C#N)C(=O)NCS1`, the “% Inhibition @ 10 uM” value was -3.53%.

Turning to `CN(C)CCN(Cc1ccccc1)Cc1ccc(F)c(Br)c1`, the “% Inhibition @ 10 uM” value was -5.11%.

As to `Oc1c(C(O)(C(F)(F)F)C(F)(F)F)cc(Cl)cc1C(O)(C(F)(F)F)C(F)(F)F`, the “% Inhibition @ 10 uM” value turned out to be 1.84%.

As to `Cc1ccc(S(=O)(=O)N2CCn3c(nc4ccccc43)C2)cc1`, the “% Inhibition @ 10 uM” value is on record as -5.47%.

For `Oc1ccc(-c2csc(-c3c[nH]c4ccccc34)n2)c(O)c1`, the “% Inhibition @ 10 uM” value is on record as -4.62%.

For the molecule `O=C(Nc1ccccc1C(=O)Nc1ccc(Cl)cc1)c1cccs1`, the “% Inhibition @ 10 uM” value is recorded as 1.96%.

For `O=C(C1=C(O)C(=O)N(CCCn2ccnc2)C1c1ccc(Cl)cc1)c1ccc2c(c1)OCCO2` (stereo not shown), the “% Inhibition @ 10 uM” value amounted to 11.7%.
